Data published in the supplement of paper PMC9446081.
In all, about 39,000 compounds went through this assay and about 220 (0.56%) showed activity. The list shows a part of the results.

Test system: Escherichia coli K-12 BW25113
Assay: relative growth (OD600 normalised to plate interquartile mean) (fraction); higher = less growth inhibition, active = 0.2 or less
Conditions: 50 µM; LB; incubation time: overnight (16-24 h)
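Further: static incubation at 37 °C against the wild-type strain, values averaged over two biological replicates.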

| Compound | relative growth |
| --- | --- |
| C[C@@H]1CN([C@@H](C)CO)C(=O)Cc2cc(NS(=O)(=O)c3cn(C)cn3)ccc2O[C@H]1CN(C)C(=O)Nc1ccccc1 | inactive: 0.986 |
| C[C@@H]1CCCCO[C@@H](CN(C)C(=O)Nc2cccc3ccccc23)[C@@H](C)CN([C@H](C)CO)C(=O)c2cc(NC(=O)NC3CCCCC3)ccc2O1 | inactive: 1.03 |
| CCCC#Cc1ccc2c(c1)O[C@@H](CN(C)Cc1ccc3c(c1)OCO3)[C@@H](C)CN([C@H](C)CO)S2(=O)=O | inactive: 1.03 |
| O=c1ccoc2cc(O)c([C@H]3O[C@H](CO)[C@@H](O)[C@H](O)[C@@H]3O)c(O)c12 | inactive: 1.03 |
| C[C@H](NC(=O)N(C)C[C@H]1OCc2ccccc2-c2ccccc2C(=O)N([C@@H](C)CO)C[C@H]1C)c1ccccc1 | inactive: 1 |
| CC(C)NC(=O)N(C)C[C@H]1Oc2c(NS(=O)(=O)c3ccc(Cl)cc3)cccc2C(=O)N([C@H](C)CO)C[C@@H]1C | inactive: 1 |
| C[C@H](CO)N1C[C@H](C)[C@@H](CN(C)S(=O)(=O)c2cn(C)cn2)Oc2cc(C#Cc3cccc(F)c3)ccc2S1(=O)=O | inactive: 1.03 |
| CN1C(=O)[C@@H]2[C@@H](C(=O)c3ccccn3)[C@@H]2C1=O | inactive: 1.04 |
| C[C@@H]1CN([C@H](C)CO)C(=O)Cc2cc(NC(=O)CCN3CCOCC3)ccc2O[C@@H]1CN(C)C(=O)Nc1ccccc1 | inactive: 0.992 |
| Oc1cc2c(cc1O)C1c3ccc(O)c(O)c3OCC1(O)C2 (stereo unspecified) | inactive: 0.716 |
| O=S(=O)(NCC[C@H]1CC[C@H](NS(=O)(=O)c2cccc(Cl)c2)[C@@H](CO)O1)c1cccc(F)c1 | inactive: 0.978 |
| C[C@@H](SC(=S)N1CCOCC1)C(=O)O | inactive: 1.01 |
| C[C@H](CO)N1C[C@H](C)[C@H](CN(C)C(=O)NC2CCCCC2)Oc2cc(-c3cccnc3)ccc2S1(=O)=O | inactive: 0.985 |
| COc1ccc(NC(=O)Nc2ccc3c(c2)C(=O)N([C@H](C)CO)C[C@@H](C)[C@H](CN(C)Cc2ccccc2)OCCCC[C@H](C)O3)cc1 | inactive: 0.979 |
| COc1ccc(NC(=O)Nc2ccc3c(c2)C(=O)N([C@H](C)CO)C[C@@H](C)[C@@H](CN(C)S(=O)(=O)c2ccc(C)cc2)OCCCC[C@H](C)O3)cc1 | inactive: 1.02 |
| C[C@H](CO)N1C[C@H](C)[C@H](CN(C)Cc2ccncc2)Oc2ccc(NC(=O)Nc3ccc(C(F)(F)F)cc3)cc2C1=O | inactive: 0.95 |
| C[C@@H]1CCCCO[C@H](CN(C)CC2CCCCC2)[C@@H](C)CN([C@H](C)CO)C(=O)c2cc(NC(=O)NC3CCCCC3)ccc2O1 | inactive: 1.02 |
| Cc1noc(C)c1NC(=O)Nc1ccc2c(c1)CC(=O)N([C@@H](C)CO)C[C@@H](C)[C@H](CN(C)S(=O)(=O)c1cn(C)cn1)O2 | inactive: 0.947 |
| C[C@@H]1CN([C@H](C)CO)C(=O)c2cc(NC(=O)Nc3ccc4c(c3)OCO4)ccc2O[C@@H](C)CCCCO[C@@H]1CN(C)S(=O)(=O)c1ccc(F)cc1 | inactive: 1.01 |
| C[C@H](CO)N1C[C@H](C)[C@@H](CN(C)Cc2ccc(Oc3ccccc3)cc2)Oc2c(NC(=O)C3CC3)cccc2C1=O | inactive: 0.999 |
| COc1ccc(S(=O)(=O)N(C)C[C@H]2OCCCC[C@@H](C)Oc3ccc(NS(C)(=O)=O)cc3C(=O)N([C@@H](C)CO)C[C@@H]2C)cc1 | inactive: 1.02 |

| Compound | relative growth |
| --- | --- |
| CCN(CC)C(=O)c1ccc(O)c(OC)c1 | inactive: 1.12 |
| C/C=C/c1ccc([C@@H]2[C@H](CO)N(S(=O)(=O)CC)C23CN(C(=O)CN(C)C)C3)cc1 | inactive: 0.982 |
| COc1cc([C@@H]2[C@H]3CO[C@@]4(O)C(=O)[C@@H]2C=C([C@H]2Oc5cc(O)cc(O)c5C(=O)[C@@H]2O)[C@@H]34)ccc1O | inactive: 1.01 |
| COCCNC(=O)C[C@H]1C[C@@H]2c3cc(NC(=O)COC)ccc3O[C@@H]2[C@H](CO)O1 | inactive: 0.884 |
| Cc1noc(C)c1S(=O)(=O)N(C)C[C@H]1OCCCC[C@H](C)Oc2ccc(N(C)C)cc2C(=O)N([C@H](C)CO)C[C@@H]1C | inactive: 1.01 |
| CCC1(O)CC2CN(CCc3c([nH]c4ccccc34)C(C(=O)OC)(c3cc4c(cc3OC)N(C=O)C3C(O)(C(=O)OC)C(OC(C)=O)C5(CC)C=CCN6CCC43C65)C2)C1.O=S(=O)(O)O (stereo unspecified) | inactive: 1.08 |
| COc1cccc(-c2cnc3c(c2)C(=O)N([C@H](C)CO)C[C@H](C)[C@H](CN(C)S(=O)(=O)c2cccc(F)c2)O3)c1 | inactive: 1.01 |
| C[C@H](CO)N1C[C@H](C)[C@H](CN(C)S(=O)(=O)c2ccc(F)cc2)OCCCC[C@H](C)Oc2ccc(NC(=O)Nc3ccc(C(F)(F)F)cc3)cc2C1=O | inactive: 1.04 |
| CCCNC(=O)[C@@]1(Sc2ccc(C)cc2)CC(=O)N(Cc2cc(C(F)(F)F)cc(C(F)(F)F)c2)[C@@H]1c1ccc(CO)cc1 | inactive: 1.01 |
| C[C@@H]1CN([C@@H](C)CO)C(=O)c2cc(NS(=O)(=O)c3ccc(F)cc3)ccc2O[C@@H](C)CCCCO[C@@H]1CN(C)C(=O)c1ccccc1 | inactive: 0.987 |
| Cc1ccc(S(=O)(=O)N[C@H]2CC[C@@H](CC(=O)N3CCC(Cc4ccccc4)CC3)O[C@H]2CO)cc1 | inactive: 0.998 |
| CC1(C)S[C@@H]2[C@H](NC(=O)[C@H](N)c3ccccc3)C(=O)N2[C@H]1C(=O)OCOC(=O)[C@@H]1N2C(=O)C[C@H]2S(=O)(=O)C1(C)C | active: 0.107 |
| Cc1noc(C)c1NC(=O)N(C)C[C@H]1Oc2ccc(NS(=O)(=O)c3cn(C)cn3)cc2CC(=O)N([C@H](C)CO)C[C@H]1C | inactive: 1.01 |
| CCCc1nc(C(C)(C)O)c(C(=O)O)n1Cc1ccc(-c2ccccc2-c2nn[nH]n2)cc1 | inactive: 1.08 |
| O=C(c1ccc(F)cc1)C1CCN(CCn2c(=O)[nH]c3ccccc3c2=O)CC1 | inactive: 0.928 |
| O=C(C[C@H]1CC[C@H]2[C@@H](COC[C@@H](O)CN2S(=O)(=O)c2ccc(Cl)cc2)O1)NCCN1CCCC1 | inactive: 1.01 |
| COc1ccc(NC(=O)N(C)C[C@@H]2OCCCC[C@@H](C)Oc3ccc(NC(=O)Cc4ccccc4)cc3C(=O)N([C@H](C)CO)C[C@@H]2C)cc1 | inactive: 0.996 |
| NCc1cnc(Nc2ccccc2)nc1 | inactive: 0.958 |
| O=C(CCCCCCC(=O)N/N=C/[C@H](O)[C@@H](O)[C@@H](O)[C@H](O)C(=O)O)NO | inactive: 0.991 |
| O=C(O)/C=C\C(=O)Nc1cccc(C(=O)O)c1 | inactive: 0.98 |
| C[C@@H]1CN([C@H](C)CO)C(=O)c2cc(/C=C/c3ccccc3)cnc2O[C@@H]1CN(C)C(=O)CN1CCOCC1 | inactive: 1.02 |

| Compound | relative growth |
| --- | --- |
| C[C@H](O)C#Cc1ccc2c(c1)O[C@H](CN(C)C(=O)c1ccncc1)[C@H](C)CN([C@@H](C)CO)S2(=O)=O | inactive: 1.02 |
| CCNC(=O)C[C@H]1CC[C@@H]2[C@H](COc3ccc(NS(=O)(=O)c4ccccc4C)cc3C(=O)N2C)O1 | inactive: 1 |
| C[C@H](CO)N1C[C@H](C)[C@@H](CN(C)Cc2ccc3c(c2)OCO3)Oc2ccc(NC(=O)C3CC3)cc2CC1=O | inactive: 1.01 |
| CC[C@@H](O)C#CCN1CCN(C)CC1 | inactive: 0.927 |
| NC(=O)Cn1nnc(-c2ccccc2)n1 | inactive: 0.979 |
| COc1ccc(S(=O)(=O)N(C)C[C@H]2Oc3ncc(-c4ccncc4)cc3C(=O)N([C@H](C)CO)C[C@@H]2C)cc1 | inactive: 0.992 |
| C[C@H]1CCCCO[C@@H](CN(C)C(=O)Nc2ccccc2)[C@@H](C)CN([C@@H](C)CO)C(=O)c2cc(NC(=O)Nc3ccc(C(F)(F)F)cc3)ccc2O1 | inactive: 1.04 |
| CC(C)NC(=O)N(C)C[C@@H]1OCc2cnnn2CCCC(=O)N([C@@H](C)CO)C[C@H]1C | inactive: 0.98 |
| C[C@@H]1CN([C@@H](C)CO)C(=O)Cc2cc(NC(=O)Cn3cnnn3)ccc2O[C@H]1CN(C)CC1CCCCC1 | inactive: 1 |
| C[C@H](CO)N1C[C@H](C)[C@@H](CN(C)Cc2ccc3c(c2)OCO3)Oc2c(NC(=O)C3CC3)cccc2C1=O | inactive: 0.99 |
| C[C@H]1CCCCO[C@@H](CN(C)C(=O)NC2CCCCC2)[C@@H](C)CN([C@@H](C)CO)C(=O)c2cc(NS(=O)(=O)c3cccs3)ccc2O1 | inactive: 1.02 |
| Cn1cc(S(=O)(=O)Nc2ccc3c(c2)OCCO3)c(=O)n(C)c1=O | inactive: 0.989 |
| Cc1noc(C)c1S(=O)(=O)Nc1ccc2c(c1)C(=O)N([C@@H](C)CO)C[C@@H](C)[C@@H](CN(C)C(=O)Nc1ccc(C(F)(F)F)cc1)OCCCC[C@H](C)O2 | inactive: 1.01 |
| COc1ccc(NC(=O)N(C)C[C@H]2OCc3ccccc3-c3c(n(C)c4ccccc34)C(=O)N([C@@H](C)CO)C[C@H]2C)c(OC)c1 | inactive: 0.987 |
| Cc1ccc(/C=C(\CCC(=O)O)c2nc3ccccc3s2)cc1 | inactive: 1 |
| Cc1ccc(S(=O)(=O)N(C)C[C@H]2Oc3ncc(Br)cc3C(=O)N([C@H](C)CO)C[C@H]2C)cc1 | inactive: 1.01 |
| COc1ccccc1NC(=O)N(C)C[C@H]1Oc2ncc(Br)cc2C(=O)N([C@H](C)CO)C[C@H]1C | inactive: 1 |
| Cn1cnc(S(=O)(=O)N2C[C@H](O)COC[C@@H]3O[C@H](CC(=O)NC4CCCC4)CC[C@H]32)c1 | inactive: 1.02 |
| COc1ccc(NC(=O)N(C)C[C@H]2OCCCC[C@H](C)Oc3ccc(NC(=O)Nc4c(C)noc4C)cc3C(=O)N([C@H](C)CO)C[C@@H]2C)cc1 | inactive: 0.994 |
